{"source": "the supplement of paper PMC8728848", "binders": {"B1": {"name": "Jacalin (Artocarpus integrifolia) (protein)", "chain": "MAYSSLLSLSVLALLFSISSADTRKWFLANGINQNPIGIIEAAVGVSEDLLNLNGMEAKNDEQSGISQTVIVGPWGAKVSTSSNGKAFDDGAFTGIREINLSYNKETAIGDFQVVYDLNGSPYVGQNHKSFITGFTPVKISLDFPSEYIMEVSGYTGNVSGYVVVRSLTFKTNKKTYGPYGVTSGTPFNLPIENGLIVGFKGSIGYWLDYFSMYLSL"}}, "test_in_all_cases": "glycan array binding signal (z-score within array); higher = stronger binding", "details_in_all_cases": "glycan notation: IUPAC condensed, linker removed", "key": {"[1]": {"biological_target": "GlcNAc(b1-2)[GlcNAc(b1-4)]Man(a1-3)[GlcNAc(b1-2)Man(a1-6)]Man(b1-4)GlcNAc(b1-4)GlcNAc", "summary_of_the_method": "(§1)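 From the Consortium for Functional Glycomics database, 3228 arrays were curated, keeping only those whose protein sequence was available. Binding is given as a within-array Z-score averaged across arrays sharing a protein sequence and across linkers. Negative Z-scores can be read as non-binding.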"}, "[2]": {"biological_target": "GlcNAc(b1-2)[GlcNAc(b1-4)]Man(a1-3)[GlcNAc(b1-4)][GlcNAc(b1-2)Man(a1-6)]Man(b1-4)GlcNAc(b1-4)GlcNAc", "summary_of_the_method": "as §1"}, "[3]": {"biological_target": "GlcNAc(b1-2)[GlcNAc(b1-4)]Man(a1-3)[GlcNAc(b1-4)][GlcNAc(b1-2)[GlcNAc(b1-6)]Man(a1-6)]Man(b1-4)GlcNAc(b1-4)GlcNAc", "summary_of_the_method": "as §1"}, "[4]": {"biological_target": "GlcNAc(b1-2)[GlcNAc(b1-4)]Man(a1-3)[GlcNAc(b1-4)][GlcNAc(b1-2)[GlcNAc(b1-6)]Man(a1-6)]Man(b1-4)GlcNAc(b1-4)[Fuc(a1-6)]GlcNAc", "summary_of_the_method": "as §1"}, "[5]": {"biological_target": "GlcNAc(b1-2)[GlcNAc(b1-6)]Man(a1-6)[GlcNAc(b1-2)Man(a1-3)]Man(b1-4)GlcNAc(b1-4)GlcNAc", "summary_of_the_method": "as §1"}, "[6]": {"biological_target": "GlcNAc(b1-2)[GlcNAc(b1-6)]Man(a1-6)[GlcNAc(b1-2)Man(a1-3)]Man(b1-4)GlcNAc(b1-4)[Fuc(a1-6)]GlcNAc", "summary_of_the_method": "as §1"}, "[7]": {"biological_target": "GlcNAc(b1-2)[GlcNAc(b1-6)]Man(a1-6)[GlcNAc(b1-4)][GlcNAc(b1-2)Man(a1-3)]Man(b1-4)GlcNAc(b1-4)GlcNAc", "summary_of_the_method": "as §1"}, "GlcNAc(b1-3)Fuc": {"biological_target": "GlcNAc(b1-3)Fuc", "summary_of_the_method": "as §1"}, "GlcNAc(b1-3)Gal": {"biological_target": "GlcNAc(b1-3)Gal", "summary_of_the_method": "as §1"}, "[8]": {"biological_target": "GlcNAc(b1-3)Gal(b1-3)GalNAc", "summary_of_the_method": "as §1"}, "GlcNAc(b1-3)Gal(b1-4)Glc": {"biological_target": "GlcNAc(b1-3)Gal(b1-4)Glc", "summary_of_the_method": "as §1"}, "[9]": {"biological_target": "GlcNAc(b1-3)Gal(b1-4)GlcNAc", "summary_of_the_method": "as §1"}, "[10]": {"biological_target": "GlcNAc(b1-3)Gal(b1-4)GlcNAc(b1-2)Man(a1-3)[GlcNAc(b1-3)Gal(b1-4)GlcNAc(b1-2)Man(a1-6)]Man(b1-4)GlcNAc(b1-4)GlcNAc", "summary_of_the_method": "as §1"}, "[11]": {"biological_target": "GlcNAc(b1-3)Gal(b1-4)GlcNAc(b1-2)Man(a1-3)[GlcNAc(b1-3)Gal(b1-4)GlcNAc(b1-2)Man(a1-6)]Man(b1-4)GlcNAc(b1-4)[Fuc(a1-6)]GlcNAc", "summary_of_the_method": "as §1"}, "[12]": {"biological_target": "GlcNAc(b1-3)Gal(b1-4)GlcNAc(b1-2)[GlcNAc(b1-3)Gal(b1-4)GlcNAc(b1-6)]Man(a1-6)[GlcNAc(b1-3)Gal(b1-4)GlcNAc(b1-2)Man(a1-3)]Man(b1-4)GlcNAc(b1-4)GlcNAc", "summary_of_the_method": "as §1"}, "[13]": {"biological_target": "GlcNAc(b1-3)Gal(b1-4)GlcNAc(b1-3)Gal(b1-4)GlcNAc", "summary_of_the_method": "as §1"}, "[14]": {"biological_target": "GlcNAc(b1-3)Gal(b1-4)GlcNAc(b1-3)Gal(b1-4)GlcNAc(b1-2)Man(a1-3)[GlcNAc(b1-3)Gal(b1-4)GlcNAc(b1-3)Gal(b1-4)GlcNAc(b1-2)Man(a1-6)]Man(b1-4)GlcNAc(b1-4)GlcNAc", "summary_of_the_method": "as §1"}, "[15]": {"biological_target": "GlcNAc(b1-3)Gal(b1-4)GlcNAc(b1-3)Gal(b1-4)GlcNAc(b1-2)Man(a1-3)[GlcNAc(b1-3)Gal(b1-4)GlcNAc(b1-3)Gal(b1-4)GlcNAc(b1-2)Man(a1-6)]Man(b1-4)GlcNAc(b1-4)[Fuc(a1-6)]GlcNAc", "summary_of_the_method": "as §1"}, "[16]": {"biological_target": "GlcNAc(b1-3)Gal(b1-4)GlcNAc(b1-3)Gal(b1-4)GlcNAc(b1-2)[GlcNAc(b1-3)Gal(b1-4)GlcNAc(b1-3)Gal(b1-4)GlcNAc(b1-6)]Man(a1-6)[GlcNAc(b1-3)Gal(b1-4)GlcNAc(b1-3)Gal(b1-4)GlcNAc(b1-2)Man(a1-3)]Man(b1-4)GlcNAc(b1-4)[Fuc(a1-6)]GlcNAc", "summary_of_the_method": "as §1"}, "[17]": {"biological_target": "GlcNAc(b1-3)Gal(b1-4)GlcNAc(b1-3)Gal(b1-4)GlcNAc(b1-3)Gal(b1-4)GlcNAc(b1-2)Man(a1-3)[GlcNAc(b1-3)Gal(b1-4)GlcNAc(b1-3)Gal(b1-4)GlcNAc(b1-3)Gal(b1-4)GlcNAc(b1-2)Man(a1-6)]Man(b1-4)GlcNAc(b1-4)GlcNAc", "summary_of_the_method": "as §1"}, "[18]": {"biological_target": "GlcNAc(b1-3)Gal(b1-4)GlcNAc(b1-3)Gal(b1-4)GlcNAc(b1-3)Gal(b1-4)GlcNAc(b1-2)Man(a1-3)[GlcNAc(b1-3)Gal(b1-4)GlcNAc(b1-3)Gal(b1-4)GlcNAc(b1-3)Gal(b1-4)GlcNAc(b1-2)Man(a1-6)]Man(b1-4)GlcNAc(b1-4)[Fuc(a1-6)]GlcNAc", "summary_of_the_method": "as §1"}, "[19]": {"biological_target": "GlcNAc(b1-3)Gal(b1-4)GlcNAc(b1-3)Gal(b1-4)GlcNAc(b1-3)Gal(b1-4)GlcNAc(b1-2)[GlcNAc(b1-3)Gal(b1-4)GlcNAc(b1-3)Gal(b1-4)GlcNAc(b1-3)Gal(b1-4)GlcNAc(b1-6)]Man(a1-6)[GlcNAc(b1-3)Gal(b1-4)GlcNAc(b1-3)Gal(b1-4)GlcNAc(b1-3)Gal(b1-4)GlcNAc(b1-2)Man(a1-3)]Man(b1-4)GlcNAc(b1-4)[Fuc(a1-6)]GlcNAc", "summary_of_the_method": "as §1"}}, "note": "Some of the results follow."}
{"binder": "B1", "values": [{"measurement": "glycan array binding signal (z-score)", "setting": "[1]", "value": 1.34}, {"measurement": "glycan array binding signal (z-score)", "setting": "[2]", "value": 1.04}, {"measurement": "glycan array binding signal (z-score)", "setting": "[3]", "value": 1.01}, {"measurement": "glycan array binding signal (z-score)", "setting": "[4]", "value": 1.82}, {"measurement": "glycan array binding signal (z-score)", "setting": "[5]", "value": 0.358}, {"measurement": "glycan array binding signal (z-score)", "setting": "[6]", "value": 0.94}, {"measurement": "glycan array binding signal (z-score)", "setting": "[7]", "value": 0.105}, {"measurement": "glycan array binding signal (z-score)", "setting": "GlcNAc(b1-3)Fuc", "value": 0.365}, {"measurement": "glycan array binding signal (z-score)", "setting": "GlcNAc(b1-3)Gal", "value": 0.629}, {"measurement": "glycan array binding signal (z-score)", "setting": "[8]", "value": 1.49}, {"measurement": "glycan array binding signal (z-score)", "setting": "GlcNAc(b1-3)Gal(b1-4)Glc", "value": -0.123}, {"measurement": "glycan array binding signal (z-score)", "setting": "[9]", "value": 0.111}, {"measurement": "glycan array binding signal (z-score)", "setting": "[10]", "value": 1.57}, {"measurement": "glycan array binding signal (z-score)", "setting": "[11]", "value": 1.4}, {"measurement": "glycan array binding signal (z-score)", "setting": "[12]", "value": 1.55}, {"measurement": "glycan array binding signal (z-score)", "setting": "[13]", "value": 0.135}, {"measurement": "glycan array binding signal (z-score)", "setting": "[14]", "value": 0.911}, {"measurement": "glycan array binding signal (z-score)", "setting": "[15]", "value": 2.52}, {"measurement": "glycan array binding signal (z-score)", "setting": "[16]", "value": 2.41}, {"measurement": "glycan array binding signal (z-score)", "setting": "[17]", "value": 3.65}, {"measurement": "glycan array binding signal (z-score)", "setting": "[18]", "value": 3.32}, {"measurement": "glycan array binding signal (z-score)", "setting": "[19]", "value": 4.09}]}
